Consider 71 sequences from the supplement of paper PMC10338343.

± gives the standard deviation. Over roughly 3,000 sequences, “pre-steady-state target cleavage rate” has its median near 0.0079; the highest 2% begin near 0.2. This is a selection; strong and weak results do not stand in their true shares.

The subject of the test is MILI (PIWIL2) piRISC loaded with piRNA #2 (26 nt). Put plainly: pre-steady-state target cleavage rate (min^-1); MIWI and MILI are mouse PIWI proteins and EfPiwi is from a freshwater sponge; tags in brackets are library labels; higher = faster piRNA-guided slicing of the target. The following applies: guide: piRNA #2 5'p-UUAGGUAACCCAGUAGAUCCAGAGGA; auxiliary factor: 500 nM mouse GTSF1. The essentials:
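Cleave-'n-Seq reactions paired 0.1 nM transcribed, DNA-blocked target RNA library with 1 nM active affinity-purified piRISC holding one synthetic guide, plus or minus 500 nM GTSF1 partner protein, in HEPES–potassium acetate buffer at 33 °C for 0–8 or 0–960 min. After sequencing of uncleaved targets and normalisation to depth and weakly complementary targets, the pre-steady-state cleavage rate was taken from a burst-and-steady-state fit. Three trials were pooled, and k3 was capped at 0.0001 min^-1.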
Regarding CUUAAGGUCUGGAUCUACUCGGUUUCCUAA, the “pre-steady-state target cleavage rate” value is under 0.0001.
Next, CUUAUCCUCUGGAUCUACUCCCUUACCUAA: under 0.0001.
For the sequence CUUAAGGAGUGGAUCUACCGGGUUACCUAA, the “pre-steady-state target cleavage rate” value turned out to be 0.0106 ± 0.0044.
Next, CUUAUCCUCUGGAUCUACUGGGUCACCUAA: 0.0729 ± 0.02; CUUAACCUCUGGAUCAACUGGGUUAGCUAA: 0.0452 ± 0.015; CUUAUCCUCUGGAUCUUCUGGGUUUCCUAA: 0.258 ± 0.088.
To CUUAAGGUCUGGAUCUACUGGGUAUCCUAA belongs 0.00775 ± 0.0042; to CUUAUCGUCUGGAUCUACUGGGAUACCUAA, 0.0257 ± 0.01; to CUUAUCCUGCUGGAUCUACUGGGUUACCUAA, 0.0776 ± 0.018.
For the sequence CUUAAGCUCUGGAUCUACUGGGAUUACCUAA, the “pre-steady-state target cleavage rate” value amounted to 0.0255 ± 0.0088.
Regarding CUUAACCUCUGGAUCAACUGGGUUACCUAA, the “pre-steady-state target cleavage rate” value was found to be 0.0725 ± 0.016.
To CUUAAGGAGUGGAUCUACUGGGUUACCAUAA belongs 0.0164 ± 0.0065; to CUUAAGGUCUGGUUCUACUGGGUUACGUAA, 0.0238 ± 0.011.
To CUUAAGGACUGGAUCUACUGGGUUACACUAA belongs 0.00728 ± 0.0071; to CUUAUCCUCUGGAUCUUGUGGGUUACCUAA, 0.0259 ± 0.0071.
To CUUAAGGUUCUGGAUCUACUGGGUUACCUAA belongs 0.0561 ± 0.014; to CUUAUCCUCUGGAUCUACGGGUUACCUAA, 0.0179 ± 0.006.
CUUAAGGUCUGGAUCUACUGUGUUACCUAA: the “pre-steady-state target cleavage rate” value amounted to 0.0217 ± 0.0075.
Take CUUAUCCUCUGGAUUACUGGGUUACCUAA: the “pre-steady-state target cleavage rate” value is 0.0465 ± 0.012.
Regarding CUUAAGGAGUGGAUCUCCUGGGUUACCUAA, the “pre-steady-state target cleavage rate” value amounted to 0.0167 ± 0.0078.
Turning to CUUAACCUCUAGAUCUACUGGGUUACCUAA, the “pre-steady-state target cleavage rate” value turned out to be 0.164 ± 0.024.
Next, CUUAACCUCUGGAUCUACUGGUUUACCUAA: 0.0131 ± 0.0052; CUUAUCCUCUGCAUCUACUGGGUAACCUAA: 0.0553 ± 0.017; CUUAAGCUCUGGAUGUACUGGGUUACCAAA: 0.0554 ± 0.014.
For CUUAUCCUCUGGAUGUACUGGGUUAGCUAA, the “pre-steady-state target cleavage rate” value was 0.0428 ± 0.011.
For the sequence CUUAAGGAGAGGAUCUACUGGGUUAGCCUAA, the “pre-steady-state target cleavage rate” value came out at 0.00695 ± 0.0046.
CUUAUCCUCUGGAACUACUGGGUUACCUUA: the “pre-steady-state target cleavage rate” value is 0.266 ± 0.073.
To CUUAACCUCUCGAUCUACUGCGUUACCUAA belongs 0.0274 ± 0.0066; to CUUAUCCUCUGGAUCUACUGGGUAUGCUAA, 0.092 ± 0.023; to CUUAAGGAGUGGUAUCUACUGGGUUACCUAA, 0.0475 ± 0.021.
To CUUAAGCUCUGGUUCUACUGCGUUACCUAA belongs 0.0161 ± 0.0062; to CUUAAGGUCUGGAUCUACUGGGUUAGCUUA, 0.00941 ± 0.0047.
Next, CUUAAGGACAGGAUCUACAGGGUUACCUAA: 0.0375 ± 0.014.
Turning to CUUAAGGAGUGGAUUCUACUGGGUUACCUAA, the “pre-steady-state target cleavage rate” value is 0.0144 ± 0.0062.
Next, CUUAAGGUCUCGAUCUACUGGGUUUCCUAA: 0.0375 ± 0.013; CUUAAGCUCUGGUUCUACUGGGUUACCUAA: 0.131 ± 0.027.
Take CUUAAGCUCUGGAUGAACUGGGUUACCUAA: the “pre-steady-state target cleavage rate” value worked out at 0.0213 ± 0.0083.
To CUUAACCUCAGGAUCAACUGGGUUACCUAA belongs 0.0494 ± 0.012.
As to CUUAAGGACUGGAUCUACUGGGUUACCUUA, the “pre-steady-state target cleavage rate” value amounted to 0.024 ± 0.013.
To CUUAAGCUCUGGAUCAACUGGGUAACCUAA belongs 0.0152 ± 0.0052; to CUUAAGCACUGGAUCAACUGGGUUACCUAA, 0.053 ± 0.011; to CUUAACCUCUGGAACUACUGGGUUAGCUAA, 0.105 ± 0.044.
Next, CUUAAGGUCUCGAUCUACUGGGUAACCUAA: 0.0272 ± 0.011.
Turning to CUUAUCCUCUGGAUCUACUGGGUGUACCUAA, the “pre-steady-state target cleavage rate” value is 0.0546 ± 0.011.
As for CUUAAGGACUCGAUCUAGUGGGUUACCUAA, the “pre-steady-state target cleavage rate” value was found to be 0.00593 ± 0.003.
As for CUUAUCCUCUGGAUCUACUGGGUUACGUUA, the “pre-steady-state target cleavage rate” value was found to be 0.103 ± 0.02.
As for CUUAUCCUCAGGAUGUACUGGGUUACCUAA, the “pre-steady-state target cleavage rate” value stood at 0.0858 ± 0.016.
With CUUAAGCUCUGGGAUCUACUGGGUUACCUAA, the “pre-steady-state target cleavage rate” value was 0.12 ± 0.024.
Next, CUUAACCUCUGCAUGUACUGGGUUACCUAA: 0.117 ± 0.016; CUUAAGGUCUGGAACUAGUGGGUUACCUAA: 0.0373 ± 0.011.
To CUUAAGGUCUGGUUGUACUGGGUUACCUAA belongs 0.0557 ± 0.011.
Next, CUUAAGGUCCUGGAUCUACUGGGUUACCUAA: 0.0452 ± 0.016.
Consider CUUAAGGUCUGGAUCUACUGGGAAACCUAA, for which the “pre-steady-state target cleavage rate” value worked out at 0.0107 ± 0.0055.
In the case of CUUAUCCUCUGGAACUACUGCGUUACCUAA, the “pre-steady-state target cleavage rate” value worked out at 0.0191 ± 0.007.
With CUUAAGGACUUGAUCUACUGGGUUACCUAA, the “pre-steady-state target cleavage rate” value came to 0.0142 ± 0.0092.
With CUUAAGCUCUGGAUUUACUGGGUUACCUAA, the “pre-steady-state target cleavage rate” value was 0.0629 ± 0.011.
As for CUUAAGGAGUGGUUCUACUGGGUUAGCUAA, the “pre-steady-state target cleavage rate” value worked out at 0.00426 ± 0.0038.
To CUUAAGCUCUGGAUCUACUGGGUUGCCUAA belongs 0.0758 ± 0.017; to CUUAACCUCUGGAUCUACUGGGAAACCUAA, 0.0897 ± 0.034.
To CUUAACCUCUGGAUCUACUGGGUAAGCUAA belongs 0.178 ± 0.038.
As for CUUAAGGAGUCGGAUCUACUGGGUUACCUAA, the “pre-steady-state target cleavage rate” value came out at 0.0106 ± 0.0083.
To CUUAAGGUCUGGAUCUACUGGGUUACGAUA belongs 0.0497 ± 0.016.
Take CUUAUCCUCAGGAUCUACUGGGAUACCUAA: the “pre-steady-state target cleavage rate” value amounted to 0.0181 ± 0.0074.
CUUAAGGUCUGGAUCUACUGGGUUACAUAA: the “pre-steady-state target cleavage rate” value was found to be 0.0431 ± 0.014.
To CUUAAGGAGUGGGAUCUACUGGGUUACCUAA belongs 0.00515 ± 0.0032.
Take CUUAAGGUCUGGAUCUACACCGUUACCUAA: the “pre-steady-state target cleavage rate” value was 0.0062 ± 0.0029.
Next, CUUAAGGUCUGGAUCAACUGGGUUACCUAA: 0.0487 ± 0.013.
To CUUAACCUCAGGAUCUACUGGGUUAGCUAA belongs 0.00818 ± 0.0057; to CUUAAGGUCUGGAGCUACUGGGUUACCUAA, 0.0669 ± 0.02.
Next, CUUAAGGACUGGAUCCUACUGGGUUACCUAA: 0.0057 ± 0.0043; CUUAAGCUCUGGAACUUCUGGGUUACCUAA: 0.033 ± 0.0096.
